Values quoted from earlier work, collected in US20170209385A1, “ETHYLCELLULOSE DISPERSION AND FILM” (Dow Global Technologies LLC, priority 2014, published 2017).
Structures can show the parent of a compound that is named as a salt. At least one read-out could not be matched to a standard name with certainty. At least one compound was matched to its structure with a doubt left.

Settings: cited from earlier work

Row | Structure (SMILES) | δ Hansen total solubility parameter [MPa^1/2] | δh Hansen hydrogen bonding parameter [MPa^1/2]
1 | OCCOc1ccccc1 [2-phenoxy ethanol, 2-Phenoxyethanol] | 23.9 | –
2 | OCc1ccccc1 [benzyl alcohol] | 23.9 | –
3 | CCCCOC(=O)CCCCCCCCC(=O)OCCCC [dibutyl sebacate] | 17.5 | –
4 | OCC(O)CO [glycerol] | 32.0 | –
5 | OC[C@@H](O)[C@@H](O[C@H]1O[C@H](CO)[C@@H](O)[C@H](O)[C@H]1O)[C@H](O)[C@@H](O)CO [maltitol] | – | 60.1
6 | OC[C@@H](O)[C@@H](O)[C@H](O)[C@H](O)CO [mannitol] | 49.7 | –
7 | CCCCCCCC/C=C\CCCCCCCCO [oleyl alcohol] | 18.2 | –
8 | OCCc1ccccc1 [phenylethyl alcohol] | 22.6 | –
9 | CC(O)CO (stereo not shown) [propylene glycol] | 30.0 | –
10 | OC[C@@H](O)[C@@H](O)[C@H](O)[C@@H](O)CO [sorbitol] | 49.7 | –
11 | CC(=O)OCC(COC(C)=O)OC(C)=O [triacetin] | 19.8 | –
12 | CCCCOC(=O)CC(O)(CC(=O)OCCCC)C(=O)OCCCC [tributyl citrate] | 19.9 | –
13 | OC[C@@H](O)[C@H](O)[C@@H](O)CO [xylitol] | 42.7 | –
